From PubChem BioAssay AID1745853 (National Center for Advancing Translational Sciences (NCATS), 2022)
This is one part of the list. Further columns of the screen follow, without active or inactive calls.

Tests used:
Experiment in all cases: Primary Screen for Target Class Profiling of Small Molecule Inhibitors of Methyltransferases
[1] = target: Glycine N-methyltransferase (Homo sapiens) (UniProt Q14749); settings: purified enzyme, MTase-Glo SAH luminescence; measured here: GNMT inhibition; at 40 µM; stronger effect = lower value
Method in brief: (§1)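 Each enzyme was assayed with SAM and its substrate. SAH formation detected by MTase-Glo luminescence; single-point 40 uM screen[…].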

[2] = target: Guanidinoacetate N-methyltransferase (Homo sapiens) (UniProt Q14353); settings: purified enzyme, MTase-Glo SAH luminescence; measured here: GAMT inhibition; at 40 µM; stronger effect = lower value
Method in brief: as §1

[3] = target: Histamine N-methyltransferase (Homo sapiens) (UniProt P50135); settings: purified enzyme, MTase-Glo SAH luminescence; measured here: HNMT inhibition; at 40 µM; stronger effect = lower value
Method in brief: as §1

[4] = target: Nicotinamide N-methyltransferase (Homo sapiens) (UniProt P40261); settings: purified enzyme, MTase-Glo SAH luminescence; measured here: NNMT inhibition; at 40 µM; stronger effect = lower value
Method in brief: as §1

[5] = target: Phenylethanolamine N-methyltransferase (Homo sapiens) (UniProt P11086); settings: purified enzyme, MTase-Glo SAH luminescence; measured here: PNMT inhibition; at 40 µM; stronger effect = lower value
Method in brief: as §1
% is scaled to controls: 0 for no effect and ±100 for the full control effect.

Row | SMILES | activity change, negative = inhibition [1] | activity change, negative = inhibition [2] | activity change, negative = inhibition [3] | activity change, negative = inhibition [4] | activity change, negative = inhibition [5]
1 | COc1ccc(-c2cc(=O)oc3cc(OC(C(=O)O)c4ccccc4)ccc23)cc1 (stereo not given) | -17% | 0% | 9.09% | 8.9% | -0.752%
2 | CC1(C(=O)NC2CCCCC2)Cn2c(cc3sccc32)C(=O)N1Cc1cccnc1 (stereo not given) | 2.75% | -2.79% | 8.17% | 4.93% | 2.05%
3 | COc1cccc(C2c3cccn3-c3sc4c(c3CN2C(=O)Nc2ccc(C)c(F)c2)CCCC4)c1 (stereo not given) | -0.132% | 2.59% | 1.83% | 4.34% | 9.25%
4 | CCCSCCCNC(=O)c1cc2n(n1)CC(C)(C(=O)NC1CCCCC1)N(C)C2=O (stereo not given) | -1.51% | 2.02% | -5.84% | -3.92% | -5.3%
5 | C[C@]12C[C@@H](O)[C@@H]3C[C@@]1(O[C@@H]1O[C@H](CO)[C@@H](O)[C@H](O)[C@H]1O)[C@]3(COC(=O)c1ccccc1)C(=O)O2 | 4.86% | 3.45% | 10.2% | -9.61% | 8.01%
6 | CCN1C(=O)c2c(C(=O)NCc3ccccc3F)ncn2CC1(C)C(=O)NC1CCCC1 (stereo not given) | -4.84% | -0.568% | 6.24% | 0.679% | 0.917%
7 | NC(=O)[C@@H](Cc1c[nH]c2ccccc12)NC(=O)[C@@H]1CN(S(=O)(=O)c2ccccc2)CCN1C(=O)C1CCNCC1 | -6.31% | -3.65% | -4.32% | -3.3% | -3.37%
8 | CCOc1cccc(NC(=O)c2ccc(N3CCCC3)c(C(F)(F)F)c2)c1 | 0.87% | 0.504% | 2.55% | -26.8% | -10.5%
9 | CCCS(=O)(=O)N1CCCC1C(=O)Nc1ccccc1-c1ccc(OC)cc1 (stereo not given) | -2.17% | 1.92% | -0.862% | -3.57% | 17.9%
10 | CCCn1c(=O)c2ccc(C(=O)NC(C)C)cc2n2c(=O)n(Cc3c(F)cccc3Cl)nc12 | 3.48% | 1.81% | 10.5% | -0.425% | 5.34%
11 | Cn1c(=O)n(C)c2cc(S(=O)(=O)N3CCN(c4cccc(Cl)c4)CC3)ccc21 | 5.14% | 0% | 8.31% | 10.1% | 3.07%
12 | Cc1ccccc1NC(=O)CSc1nnc2n(CC(C)C)c(=O)c3cc(F)ccc3n12 | -3.23% | 0.004% | 2.99% | -4.62% | 1.35%
13 | CC1=CC(=O)C2(OC3OC(C)C(O)C(OC(=O)/C=C/c4ccccc4)C3O)C=COC(OC3OC(CO)C(O)C(O)C3O)C12 (stereo not given) | -1.45% | -2.73% | 7.09% | -14.6% | -3.41%
14 | Cc1cnc(C2CCOCC2)n1CC1CCN(C2CCCCCC2)CC1 | -2.25% | -1.69% | -9.91% | 1.67% | 5.26%
15 | O=C(CN1CCCC1)N[C@H]1CC[C@H](Nc2nccc(-c3cccnc3)n2)C1 | -9.02% | -3.62% | -47.3% | -10.8% | -14.9%
16 | CN1CCCC(c2nc(CCOCC3CCCC3)no2)C1 (stereo not given) | -3.87% | -5.27% | -3.72% | -4.94% | -7.33%
